In PubChem BioAssay AID686979 (National Center for Advancing Translational Sciences (NCATS), 2013):
Hit rate of the full screen: of about 420,000 compounds, about 50,000 (12%) were called active. This list was built around the results that the source calls inconclusive (neither active nor inactive); the mix of calls is not that of the screen. The call rests on the fitted dose curve; in most records, active means well fitted inhibition curve with a large enough effect; inconclusive means small, poorly fitted or top-dose-only effect; inactive means flat fitted curve, though single readings scatter. No potency is given beside an inconclusive call; the fits are too rough.

Assay: qHTS for Inhibitors of human tyrosyl-DNA phosphodiesterase 1 (TDP1): qHTS in cells in presence of CPT; further: nearly all actives have a fitted effect of over 55% in size
Details: chicken DT40 Tdp1-/-;hTDP1 cells + 20 nM CPT, ATP luminescence, 48 h; activity change, negative = growth inhibition: at 46.2 µM (top of the series) unless noted
In short: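 Chicken DT40 Tdp1-/- cells complemented with human TDP1, 400 cells/well, exposed to compounds plus 20 nM camptothecin for at least 48 h at 37 C; viability read as ATP content by CellTiter-Glo luminescence.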
On the % scale 0 is the no-effect control and ±100 the full control effect; potency means the concentration at half of the fitted maximal effect; tags describe the fitted curve by direction and shape.

Compound | activity change, negative = growth inhibition | Potency
Cc1ccc(/C=N/c2sc3c(c2C(N)=O)CCCC3)o1 | inactive: 0.752% | –
CCC(C)[C@H](NC(=O)c1cc2cc(Cl)ccc2n1C)C(=O)N1CCC(C(=O)O)CC1 (some centres not stated) | inactive: 0.496% | –
O=C1c2ccccc2C(=O)N1CCCCN(C(=O)c1ccc(Cl)s1)c1ccc(Cl)cc1 | – | inconclusive [inhibitor, single point]
c1cc(-c2cc3c(o2)CCCC3OCCN2CCOCC2)cs1 (configuration not stated) | – | inconclusive [inhibitor, single point]
COc1ccc(-c2ccc(CN3C(C(C)C)C(=O)N(Cc4cn(Cc5ccco5)nn4)CCS3(=O)=O)cc2)cc1 (configuration not stated) | – | inconclusive [inhibitor, single point]
O=C(N/N=C/c1ccccn1)c1sc2ccccc2c1Cl | – | active: 16.4 µM
Cc1ccc(CNc2cc(C(=O)O)ccc2Cl)s1 | inconclusive: -12.1% [inhibitor] | –
Cc1ccc(C)c(N(CC(N)=O)S(C)(=O)=O)c1 | – | inconclusive [inhibitor, single point]
COC(=O)[C@H]1[C@H]2C[C@H]3c4[nH]c5ccccc5c4CCN3C[C@@H]2CC[C@@H]1O | – | inconclusive [inhibitor, single point]
CC(=O)Nc1cccc(Oc2cc(C#N)c(C#N)cc2N2CCOCC2)c1 | – | inconclusive [inhibitor, partial curve]
COC(=O)c1ccc(C(=O)OC)c(NC(=O)COC(=O)C2CCC(C(C)(C)C)CC2)c1 (configuration not stated) | – | active: 23.1 µM
CN(C)c1ccc(P(=O)(Nc2ccccc2)N2CCOCC2)c(NC(=O)c2cccs2)c1 (configuration not stated) | – | inconclusive [inhibitor, single point]
COc1ccc(NC(=O)C2c3ccccc3OCC(=O)N2Cc2ccc3c(c2)OCO3)cc1 (configuration not stated) | inactive: -14.8% | –
Cc1nn(C)c(C(=O)NNC(=O)NC2CCCCC2)c1Cl | inactive: 2.21% | –
CCc1ccc(CN(C(=O)c2oc3ccccc3c2C)C2CCS(=O)(=O)C2)cc1 (configuration not stated) | – | inconclusive [inhibitor, single point]
CC(CCN1C(Nc2ccccc2)=NC[C@@H]1Cc1ccccc1)c1ccccc1 (some centres not stated) | – | inconclusive [inhibitor, single point]
Cc1ccc(S(=O)(=O)NC(=O)COc2cc(C)ccc2C(C)C)cc1 | – | inconclusive [inhibitor, partial curve]
O=C(c1ccco1)N1CCN(C(=O)c2[nH]c(C(F)(F)F)nc2-c2ccccc2)CC1 | – | inconclusive [inhibitor, single point]
CCOC(=O)c1sc2cc([N+](=O)[O-])cc(SCC(C)C)c2c1N | – | inconclusive [inhibitor, single point]
COc1cccc(/C=C/C(=O)OCC(=O)NCC2CCCCC2)c1OC | inactive: -16.7% | –
COc1ccc(C2CC(c3cccs3)n3nc(N)nc3N2)cc1 (configuration not stated) | – | active: 23.1 µM
Cc1c(N=C2N=C(NC(=O)c3ccc(F)cc3)c3ccccc32)c(=O)n(-c2ccccc2)n1C | – | active: 16.4 µM
COc1cc(OC)cc(N(C(=O)c2ccco2)C(C(=O)NC2CCCC2)c2ccc(N(C)C)cc2)c1 (configuration not stated) | – | inconclusive [inhibitor, single point]
COc1ccccc1-c1nnc(NC(=O)c2ccc(S(=O)(=O)N(C)CC3CCCO3)cc2)o1 (configuration not stated) | – | inconclusive [inhibitor, single point]

Compound | activity change, negative = growth inhibition | Potency
CCCN(CCC)Cc1cc(=O)oc2ccc3ccccc3c12 | – | inconclusive [inhibitor, single point]
Fc1ccc(-c2csc3ncnc(N4CCN(Cc5ccccc5)CC4)c23)cc1 | – | active: 20.6 µM
CC(=O)c1cc(CN2CCN(Cc3ccc(C)cc3)C(CCO)C2)cs1 (configuration not stated) | inactive: -12.8% | –
COc1cc(CNCc2ccc(OC)c(OC)c2OC)cc(OC)c1 | – | active: 18.4 µM
COc1ccccc1/C=C1\SC(=S)N(Nc2nc(C)cc(C)n2)C1=O | – | inconclusive [inhibitor, partial curve, poor fit]
CNC(=O)c1ccsc1NC(=O)C1CCN(S(=O)(=O)c2ccc(Cl)s2)CC1 | – | active: 16.4 µM
O=C(COC(=O)Cc1ccc(Cl)c(Cl)c1)NCCc1ccccc1 | inactive: -14.6% | –
CN(Cc1ccccc1)c1ncnc2onc(-c3ccc(F)cc3)c12 | – | active: 23.1 µM
CCCCOc1cccc(NC(=O)CSc2nnc(C)s2)c1 | inactive: -13.6% | –
COc1ccc(Oc2ncc3nc(-c4cc(F)cc(F)c4)c(=O)n(C[C@H]4CCCO4)c3n2)cc1 | – | inconclusive [inhibitor, single point]
O=C(CSc1nnc(-c2ccc(F)cc2)o1)Nc1ccc(S(=O)(=O)N2CCCCCC2)cc1 | inactive: -25% | –
Cc1cc(Nc2cccc(C(F)(F)F)c2)nc2ccc(NC(=O)c3ccc(=O)[nH]c3)cc12 | – | active: 16.4 µM
O=C(NCc1ccc(F)cc1)c1c(O)nc2ccccn2c1=O | – | inconclusive [inhibitor, single point]
COc1ccc(-c2ccc(C#N)c(SCC(=O)Nc3sc4c(c3C#N)CCC4)n2)cc1OC | – | active: 23.1 µM
Cc1cc(N/N=C/c2ccco2)c2ccccc2n1 | – | inconclusive [inhibitor, single point]
COc1ccc(C(=O)N/N=C/c2ccc3cccc(OCc4ccccc4)c3n2)cc1 | – | inconclusive [inhibitor, single point]
COc1cc(OC)cc(C(=O)NCCC(c2ccccc2)c2ccccc2)c1 | – | inconclusive [inhibitor, single point]
COCCn1c(=O)c(-c2cc(F)cc(F)c2)nc2cnc(OC)nc21 | inactive: 4.79% | –
COc1ccc(NC(=S)N(Cc2ccccn2)Cc2ccccc2Cl)cc1 | inactive: 10.1% | –
COc1ccc(NC(=O)COc2ccc(S(=O)(=O)NC3CCCCC3)cc2)cc1OC | – | inconclusive [inhibitor, partial curve, poor fit]
CC(C)(C)n1nnnc1C(c1ccccc1OC(F)(F)F)N1CCN(C/C=C/c2ccccc2)CC1 (configuration not stated) | – | active: 20.6 µM
COc1ccc(OC)c(NC(=O)CSc2nc3ccccc3nc2N2CCCCC2)c1 | – | inconclusive [inhibitor, single point]
CN(CC(=O)NCc1cccnc1)S(=O)(=O)c1ccc(F)cc1 | inactive: 17.2% | –
COc1cccc(-c2cc(C(=O)Nc3ccc(N(C)C(C)=O)cc3)c3cc(Br)ccc3n2)c1 | – | active: 1.84 µM

Compound | activity change, negative = growth inhibition | Potency
Cc1cccc(C)c1NC(=O)c1sc(N)nc1-c1ccccc1 | inactive: -19.1% | –
COc1ccc(CCNC(=O)c2ccc(S(=O)(=O)N(C)c3ccccc3)cc2)cc1OC | – | inconclusive [inhibitor, single point]
CCOC(=O)CN1C(=O)/C(=C/c2c(F)cccc2Cl)Oc2ccccc21 | – | inconclusive [inhibitor, single point]
Cn1c(=O)c2c(SCc3ccccn3)nc(C3CC3)nc2n(C)c1=O | – | inconclusive [inhibitor, single point]
COc1ccc(Br)cc1C1Sc2ccccc2NC2=C1C(=O)c1ccccc12 (configuration not stated) | – | inconclusive [inhibitor, single point]
CCC(=O)NC(=S)Nc1ccccc1C(=O)OC | inactive: -4.55% | –
Cc1nc2ccc([N+](=O)[O-])cc2c(=O)n1Cc1ccc(Cl)cc1 | – | inconclusive [inhibitor, partial curve, poor fit]
CC1(C)Cc2c(C#N)c(SCc3nc4ccccc4[nH]3)nc(N3CCOCC3)c2CO1 | – | inconclusive [inhibitor, single point]
Cc1cc(C)nc(N/N=C/C(Cl)=C/c2ccccc2)n1 | inconclusive: -31.6% [inhibitor] | –
Cc1noc(C)c1CSc1nc2ccccc2c(=O)n1-c1ccccc1 | – | active: 6.51 µM
N#C/C(C(=O)Oc1ccccc1)=C1/Nc2ccccc2-c2ccccc21 | – | inconclusive [inhibitor, single point]
COc1cccc(C(=O)/C=C2\Sc3ccccc3N2C)c1 | – | inconclusive [inhibitor, single point]
O=C(CN1C(=O)NC2(CCCCCCC2)C1=O)NC1CCCc2ccccc21 (configuration not stated) | inactive: -12.3% | –
CCS(=O)(=O)c1cc([N+](=O)[O-])c(Sc2ccccc2NC(C)=O)s1 | – | active: 3.26 µM
COc1cc(Cl)c(C)cc1NC(=O)c1ccccc1-n1cnnn1 | – | inconclusive [inhibitor, single point]
Cc1ccc(-n2ncc3c(NCCCn4ccnc4)ncnc32)c(C)c1 | – | inconclusive [inhibitor, single point]
C#CCN(C[C@H]1[C@H](OC(=O)NCCCCCC)[C@H](OC(=O)NCCCCCC)C[C@@H](C(=O)OC)[C@H]1C(=O)OC)S(=O)(=O)c1ccc(C)cc1 | – | active: 4.11 µM
O=C(Nc1ccc(F)cc1)C(=O)c1c(O)[nH]c2ccc([N+](=O)[O-])cc12 | inactive: -9.69% | –
CCOCCCn1c(SCC(=O)Nc2ccc(C)cc2)nc2ccccc2c1=O | – | active: 16.4 µM
CC(=O)Oc1c(/C=C(\C#N)C(N)=O)[nH]c2ccccc12 | – | active: 16.4 µM
CCOC(=O)c1c(-c2cccs2)csc1NC(=O)CN(CC)CC | – | inconclusive [inhibitor, single point]
Cc1ccc(SC/C(O)=C(\C#N)c2nc3ccccc3s2)cc1 | – | inconclusive [inhibitor, single point]
COc1ccc(NS(=O)(=O)c2ccc(NC(C)=O)cc2)cc1OC | – | active: 9.2 µM
CC(C)N(C)c1ncnc2c1ncn2[C@H]1CN(CCN2CCOCC2)C[C@@H](CO)O1 | inactive: 4.57% | –
